Data from PubChem BioAssay AID493208 (National Center for Advancing Translational Sciences (NCATS), 2011).
In all, about 44,000 compounds went through this assay and about 340 (0.77%) were called active. Roughly 5% stayed inconclusive and do not appear here. Calls come from the whole dose curve; as a rule, active = well fitted inhibition curve with a large enough effect; inconclusive = small, poorly fitted or top-dose-only effect; inactive = flat fitted curve, though single readings scatter. Some of the results follow.

Assay: Acumen qHTS Assay for Inhibitors of the mTORC1 Signaling Pathway in MEF (Tsc2-/-, p53-/-) Cells: Sytravon;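 note: plate controls were DMSO for no effect and rapamycin for full effect; nearly all actives have a fitted effect of over 50% in size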
Settings: phospho-rpS6 immunofluorescence/PI, 24 h; series mostly up to 38.3 µM; activity change, negative = inhibition: at the top concentration
In short: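 Immunofluorescence of rpS6 phosphorylation in Tsc2-/-, p53-/- MEFs after 24 h compound exposure, normalized to propidium iodide signal. Activity is expressed as % positive cells, thresholded with 7.5 nM rapamycin.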

Activity change, negative = inhibition, inactive:
CCN(Cc1ccccc1)C(=O)c1nc(-c2cccc(F)c2)n2c1CCCCC2 -0.22%
O=C(NC1CCCCC1)c1cc(Nc2cccc(C(F)(F)F)c2)nc2ccccc12 -4.72%
COc1cc(C(=O)Nc2nc3nc(-c4ccccc4)cc(=O)n3[nH]2)cc(OC)c1OC -6.25%
Cc1ccn2c(=O)cc(CSc3nnc(NC(=O)c4ccccc4Cl)s3)nc2c1 -3.39%
Cc1ccc(SCc2nc(-c3ccc(C(=O)NCc4ccc(Cl)cc4)cc3)oc2C)cc1 -1.63%
COc1ccc(CNC(=O)c2cc3c(=O)[nH]c4ccccc4c3s2)cc1 0.459%
CCOC(=O)c1ccccc1NC(=O)CCOc1ccccc1 3.96%
Cc1cccc(N2CCN(C(=O)NCc3noc4ccccc34)CC2)c1C -14.4%
COc1ccccc1CNC(=O)C(=O)NCC(c1ccco1)S(=O)(=O)c1cccs1 (stereo not given) -9.23%
O=C(NC1CCCCC1)c1cc2c(Cl)nc3ccccc3c2s1 -8.48%
CCOc1ccc(NC(=O)C(NS(=O)(=O)c2cccc3nsnc23)c2ccccc2)cc1 (stereo not given) -21.5%
OCCCc1nc2ccccc2n1CCCCOc1ccccc1 -1.68%
Cc1cccc(-c2noc(CN(C(=O)COc3ccc(Br)cc3C)C(C)C)n2)c1 -1.19%
CCn1cc(C(=O)N2CCN(c3cc(C)ccc3C)CC2)c(=O)c2cc(S(=O)(=O)N3CCOCC3)ccc21 -0.334%
COc1ccc(Cl)cc1NC(=O)Cn1c(=O)n(Cc2ccco2)c(=O)c2cccnc21 0.94%
COc1ccc(C(=O)NCCn2cc(SCC(=O)Nc3cccc(C)c3)c3ccccc32)cc1 5.66%
COCCc1nn2c(=O)cc(COC(=O)c3ccc(OC)c(OC)c3)nc2s1 -0.376%
Cc1ccc(C)n1-c1c(C(=O)NCCC(C)C)sc2ncccc12 0%
CCOC(=O)C1CCN(C(=O)Cn2c(=O)cc(C)c3c(C)nn(C)c32)CC1 -15.8%
Cc1oc2ncn(CC(C)C)c(=O)c2c1C(=O)N1CCN(c2cccc(C(F)(F)F)c2)CC1 -5.57%
CCc1nn(-c2ccccc2)c2nc(-c3cccc(OC)c3)c3cc(OC)c(OC)cc3c12 2.87%
Cc1cccc(-n2ncc3c(Nc4ccc(Oc5ccc(Cl)cc5)cc4)ncnc32)c1 0.523%
COc1cc(-c2nc3nc[nH]n3c2Nc2ccc(C(C)C)cc2)ccc1O -0.129%
Cc1ccc(CNC(=O)CCCCn2c(=O)c3ccccc3n(Cc3c(C)cc(C)cc3C)c2=O)cc1 2.32%
COc1cccc(NC(=O)CSC2=Nc3ccccc3C3=NC(CC(=O)NCCc4ccccc4)C(=O)N23)c1 (stereo not given) -4.69%
COc1ccccc1N1CCN(C(=O)Cn2ncc3c([nH]c4ccccc43)c2=O)CC1 2.02%
CCOC(=O)c1ccccc1NC(=O)Cn1c(=O)n(Cc2nc(-c3ccccc3)no2)c(=O)c2ccccc21 -10.8%
CCOCCCNC(=O)NC(C)c1c(-n2cccc2)sc2c1CCN(CC)C2 (stereo not given) 0.547%
COc1ccc(OC)c(S(=O)(=O)N2CCC(c3ccncc3)CC2)c1 -0.686%
CCc1ccc(-n2c(SCc3ccccc3F)nc3[nH]ncc3c2=O)cc1 -13.4%
O=C(CCc1nc(CN2CCN(S(=O)(=O)c3ccc(F)cc3)CC2)no1)N1CCCCC1 -14.3%
CCc1ccc(C(=O)c2cn(CC(=O)NCCc3ccc(OC)c(OC)c3)c3nc(C)ccc3c2=O)cc1 3.45%
O=C(c1ccc2c(c1)N(Cc1ccccc1F)C(=O)c1ccccc1S2(=O)=O)N1CCCCC1 -5.7%
COc1cccc(NC(=O)CSC2=Nc3ccccc3N=C(c3ccc(F)cc3)C2)c1 -0.452%
O=c1nc2sc3ccccc3n2c(=O)n1-c1ccc(Cl)c(Cl)c1 -2.62%
COc1ccccc1NC(=O)Cn1c(=O)n(-c2cccc(C(C)=O)c2)c(=O)c2c3c(sc21)CN(C(C)=O)CC3 2.86%
Cc1ccc(C2C=C(c3ccc(Cl)cc3)Nc3nc(NS(=O)(=O)c4ccccc4)nn32)cc1 (stereo not given) 2.19%
CCN1CCN(C(=O)c2cnn(-c3ccc(F)cc3)c2-n2cccc2)CC1 -3.12%
O=C(CCC1N=C2c3ccccc3N=C(SCC(=O)Nc3ccccc3F)N2C1=O)NCc1ccccc1 (stereo not given) 3.12%
CC(=O)Nc1ccc(NC(=O)c2oc3ccc4c(c3c2C)C(=O)CC(C)(C)O4)cc1 -2.38%
O=c1c(N2CCc3ccccc3C2)csc2ccccc12 3.95%
O=C(NCCc1ccccc1)c1ccc2c(c1)N(Cc1ccccc1F)C(=O)c1ccccc1S2=O (stereo not given) -1.44%
Cc1ccc(-c2ccc(=O)n(CC(=O)Nc3cccc(C#N)c3)n2)cc1 3.11%
CNC(=O)C1CCC(Cn2c(=O)c3sccc3n(CC(=O)NCc3ccc(F)cc3)c2=O)CC1 (stereo not given) -0.255%
CCOc1ccc(-c2nc3c(c(SCC(=O)N4CCCCC4)n2)Cc2ccccc2O3)cc1 2.92%
COc1ccc(NC(=O)c2ccc3c(=O)n4nc(Nc5cccc(Cl)c5C)sc4nc3c2)cc1 -6.22%
C=Cc1ccc(Cn2c(C(=O)O)c(CNCc3ccccc3)c3ccc(C)cc32)cc1 -24.7%
CC1=C(C(=O)Nc2cccnc2)C(c2ccccc2)n2nc(-c3ccc(O)cc3)nc2N1 (stereo not given) -3.63%
Cc1ccc(C2CCN(C(=O)c3cnn(-c4ccc(C)cc4)c3C3CCN(C(=O)OC(C)(C)C)CC3)C2)cc1 (stereo not given) 1.07%
Cc1ccc(-c2csc(=Nc3ccc(F)cc3)n2Cc2ccc3c(c2)OCO3)cc1C -23.4%
Cc1c(Cl)cccc1NC(=O)c1ncn(-c2ccccc2)n1 7.1%
COc1cccc(NC(=O)CC(C)S(=O)(=O)c2ccc3c(c2)NC(=O)CO3)c1 (stereo not given) -5.47%
Cc1cccc(C(=O)Nc2nnc(S(=O)(=O)N(C)Cc3ccco3)s2)c1 0%
COc1ccc(CCNC(=O)CSc2nc(-c3ccc(F)cc3)cc(C(F)(F)F)n2)cc1OC -7.82%
Cc1nn(-c2ccccc2)c2sc(C(=O)Nc3ccccc3Br)cc12 -28.6%
Cc1ccc(NC(=O)CN2C(=O)C3(SCC(=O)N3c3cccc(Cl)c3)c3ccccc32)cc1C (stereo not given) -6.21%
Cc1ccc(NS(=O)(=O)c2ccc3c(c2)CCCN3C(=O)C2CCC2)cc1Cl -25.3%
Nc1c(C(=O)Nc2ccc(C(=O)O)cc2)sc2nc3c(cc12)CCCC3 -5.92%
COc1cc(OC)cc(C(=O)Nc2ccc(S(=O)(=O)Nc3ncccn3)cc2)c1 0.125%
Cc1nc2nncn2c(NCc2ccc(F)cc2)c1C -15.4%
COCCNc1nc2c(S(=O)(=O)c3ccc(C)c(C)c3)nnn2c2ccc(Cl)cc12 -2.52%
O=C(Nc1nnc(S(=O)(=O)Nc2ccccc2)s1)c1ccccc1Cl -4.84%
CCc1noc(-c2ccc(N3CCCCC3C)c([N+](=O)[O-])c2)n1 (stereo not given) 0.357%
Cc1ccc(NC(=O)CCS(=O)(=O)c2cc3c4c(c2)CCN4C(=O)CC3)c(C)c1 0%
O=C(NCc1ccc2c(c1)CCN2C(=O)c1ccc(Cl)cc1)c1cccc(F)c1 -0.106%
CCCCN(C)C(=O)C1CCC(CNS(=O)(=O)c2ccc(Cl)cc2)CC1 (stereo not given) -11.2%
CCC(Oc1ccccc1)C(=O)Nc1cc(-c2ccccc2OC)nn1-c1ccccc1 (stereo not given) 1.69%
Cc1ccc(-c2nc3c(c(SCC(=O)Nc4ccccc4Cl)n2)Cc2c(CO)cnc(C)c2O3)cc1 2.85%
CCOC(=O)c1c(S(=O)(=O)NCC(=O)NCc2cccc(C)c2)c(C)n(C)c1C -0.837%
Cc1ccc(CS(=O)(=O)c2ncc(Cl)c(C(=O)Nc3nc4ccc(F)cc4s3)n2)cc1 -1.1%
O=C(COc1ccccc1)Nc1nnc(S(=O)(=O)N2CCCC2)s1 9.92%
COc1ccccc1NC(=O)C(Cc1ccccc1)NS(=O)(=O)c1ccc2c(c1)c(=O)n(C)c(=O)n2C (stereo not given) -0.717%
O=C(Nc1ccc2oc(-c3ccc4ccccc4c3)nc2c1)c1ccccc1F 0.435%
O=C(OCC1CCCO1)c1ccc2c(c1)N(Cc1ccccc1Cl)C(=O)c1ccccc1S2(=O)=O (stereo not given) 7.12%
CCCCOc1cccc(NC(=O)CSc2nnc(C)s2)c1 12.2%
Cc1cc(Nc2cccc(C(F)(F)F)c2)nc2ccc(NC(=O)c3ccc(=O)[nH]c3)cc12 0.848%
O=C(NCc1ccc(F)cc1)c1c(O)nc2ccccn2c1=O 1.12%
CN(Cc1ccccc1)c1ncnc2onc(-c3ccc(F)cc3)c12 -6.54%
COc1ccc(OC)c(NC(=O)CSc2nc3ccccc3nc2N2CCCCC2)c1 -1.97%
CCCC(=O)OCc1cnc(C)c2oc(=O)c(C(=O)Nc3ccccc3)cc12 12.9%
COc1ccc(NC(=O)COc2ccc(S(=O)(=O)NC3CCCCC3)cc2)cc1OC -10.7%
CC(NC(=O)CCNS(=O)(=O)c1cccc2nsnc12)c1ccccc1 (stereo not given) -7.49%
O=C(Nc1cccc(Cl)c1)c1cnc[nH]1 15.8%
COc1ccc(Br)cc1C1Sc2ccccc2NC2=C1C(=O)c1ccccc12 (stereo not given) -12.6%
Cc1ccc2c(=O)cc(CSCC(=O)Nc3nnc(C)s3)[nH]c2c1 -6.94%
COc1cc(Cl)c(C)cc1NC(=O)Cn1ncc2c([nH]c3ccccc32)c1=O -0.567%
COc1cccc(C(c2c(O)cc(C)n(Cc3ccco3)c2=O)N2CCN(c3ccccc3)CC2)c1 (stereo not given) -5.3%
O=C(CSc1nccn1Cc1ccc(Cl)cc1)Nc1ccc2c(c1)OCCO2 -0.394%
CCOCCCn1c(SCC(=O)Nc2ccc(C)cc2)nc2ccccc2c1=O -2.22%
Cc1cc(C)n(C(C)CC(=O)NCc2ccc(N(C)C)cc2)n1 (stereo not given) -22.9%
COC(=O)c1cc2sccc2n1Cc1nc(-c2ccc(Cl)cc2)oc1C -3.11%
CCc1ccccc1NC(=O)c1ccc2c(c1)N(Cc1cc(C)ccc1C)C(=O)c1ccccc1S2(=O)=O 0.0579%
COc1ccc(CNC(=O)C(C)n2ccc3cc(S(=O)(=O)N4CCCC4)ccc32)cc1OC (stereo not given) 0.23%
Cc1cc(C)c(NC(=O)C2CCN(c3nnc(C)c4c(C)n(-c5ccccc5)nc34)CC2)c(C)c1 -7.5%
COc1ccccc1NC(=O)C1=C(C)Nc2nc(SCc3ccccc3C)nn2C1CC(C)C (stereo not given) 0.306%
